Laboratory results from PubChem BioAssay AID686978 (National Center for Advancing Translational Sciences (NCATS), 2013).
Among all 420,000 compounds or so, about 64,000 (15%) were called active. The inconclusive results got no clear call from the source; some entries with a clear call stand among them for comparison. The call rests on the fitted dose curve; in most records, active means well fitted inhibition curve with a large enough effect; inconclusive means small, poorly fitted or top-dose-only effect; inactive means flat fitted curve, though single readings scatter. Potencies of inconclusive entries are left out as doubtful fits.

assay: qHTS for Inhibitors of human tyrosyl-DNA phosphodiesterase 1 (TDP1): qHTS in cells in absence of CPT; settings: DT40 Tdp1-/- hTDP1 cells, no CPT, ATP luminescence, 48 h; series mostly up to 46.2 µM; further: nearly all actives have a fitted effect of over 55% in size
Method in brief: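 Seeded 400 DT40-hTDP1 cells/well (vehicle DMSO, no 20 nM CPT); pinned compounds; ≥48 hr at 37 °C; CellTiter-Glo luminescence as viability measure.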
Potency means the concentration at half of the fitted maximal effect; tags describe the fitted curve by direction and shape.

For `CCn1c(SCC(=O)Nc2c(C)n(C)n(-c3ccccc3)c2=O)nc2c1c(=O)n(C)c(=O)n2C`, which Potency is on record?
Its Potency is “inactive”.

For `CC(c1ccccc1)n1c(CCCO)nc2ccccc21` (stereo not given), which Potency is on record?
Its Potency is “inactive”.

With `COc1cccc(-c2nc(NCc3ccc(OC)cc3OC)c3ccccc3n2)c1` as the molecule, how does the Potency read?
The Potency was inconclusive [inhibitor, single point].

With `O=c1[nH]c(SCc2ccc(Br)cc2)nc2c1CCCC2` as the molecule, how does the Potency read?
The Potency was inconclusive [inhibitor, single point].

With `O=C(c1ccc2c(c1)C(=O)N(Cc1ccncc1)C2=O)N1CCN(S(=O)(=O)c2ccc(OC(F)(F)F)cc2)CC1` as the molecule, how does the Potency read?
Its Potency is “inactive”.

Which Potency does the source give for `COc1ccc(S(=O)(=O)N2CCCN(CCC(=O)Nc3cccc(C(F)(F)F)c3)CC2)cc1` here?
The Potency was “inactive”.

For `CCOC(C)=O`, which Potency is on record?
The Potency was “inactive”.

Which Potency does the source give for `Cc1ccnc(NC(=O)C(C)n2cc([N+](=O)[O-])cn2)c1` (stereo not given) here?
Its Potency is “inactive”.

Which Potency does the source give for `CN(CCc1ccccc1)C(=O)c1ccc(NC(=O)Cc2ccc(NC(=O)C3CCCN(C(=O)C4CCCCC4)C3)cc2)cc1` (stereo not given) here?
Its Potency is inconclusive [inhibitor, single point].

For `COc1ccccc1-c1cncnc1NCc1cnc(C)cn1`, which Potency is on record?
The Potency was “inactive”.

Which Potency does the source give for `COC(=O)c1ccc(OC)c(CSc2nnc(-c3ccc(C(C)(C)C)cc3)o2)c1` here?
Its Potency is active: 20.6 µM.

Which Potency does the source give for `NC1=NC[C@H](c2ccccc2)N1CC1CCCCC1` here?
The Potency was active: 16.4 µM.

For `COc1ccc2c(CC(=O)N[C@@H](Cc3c[nH]c4ccccc34)C(=O)O)cc(=O)oc2c1`, which Potency is on record?
The Potency was “inactive”.

With `CC1=C(C(=O)OCc2ccc3c(c2)OCO3)C(c2ccc(O)c([N+](=O)[O-])c2)NC(=O)N1` (stereo not given) as the molecule, how does the Potency read?
Its Potency is inconclusive [inhibitor, single point].

For `COc1ccc(-n2c(SC(C)C(=O)Nc3ccc(NC(C)=O)cc3)nc3ccccc3c2=O)cc1OC` (stereo not given), which Potency is on record?
The Potency was “inactive”.

For `O=C(NC1CC(=O)N(c2ccc(Cl)cc2)C1)c1cccs1` (stereo not given), which Potency is on record?
The Potency was “inactive”.

With `Cc1cccc2sc(N3CCN(C(=O)C4COc5ccccc5O4)CC3)nc12` (stereo not given) as the molecule, how does the Potency read?
Its Potency is inconclusive [inhibitor, single point].

For `CC(NC(=O)Cn1c(-c2cccs2)cc2cc(F)ccc21)c1ccccc1` (stereo not given), which Potency is on record?
Its Potency is inconclusive [inhibitor, full curve].

Which Potency does the source give for `O=C(NCCc1cccc(Cl)c1)c1cc2ccccc2oc1=O` here?
The Potency was “inactive”.

For `CCC(C)NC(=O)c1c(-c2ccccc2)c(-c2ccccc2)nn(C)c1=O` (stereo not given), which Potency is on record?
The Potency was “inactive”.

For `COC(=O)c1ccc(OCCOCCOc2cccc3ccc(C)nc23)cc1`, which Potency is on record?
The Potency was active: 23.1 µM.

Which Potency does the source give for `Cc1cccc(CNc2cc(-c3ccc(N(C)C)cc3)ncn2)c1` here?
The Potency was inconclusive [inhibitor, full curve].

Which Potency does the source give for `OCCN(CCO)CC(O)Cn1c2ccccc2c2ccccc21` (stereo not given) here?
Its Potency is inconclusive [inhibitor, single point].

For `O=C(Cn1c(=O)n(Cc2ccc3c(c2)OCO3)c(=O)c2ccc(C(=O)NC3CCCCC3)cc21)Nc1ccccc1F`, which Potency is on record?
Its Potency is inconclusive [inhibitor, partial curve, poor fit].

Which Potency does the source give for `O=C(O)c1ccc2c(c1)C(=O)N(NC(=O)c1ccc(O)cc1)C2=O` here?
Its Potency is “inactive”.

For `COc1ccc(-c2cc(C(=O)Oc3ccc(C)c(C)c3)c3ccccc3n2)cc1`, which Potency is on record?
The Potency was inconclusive [inhibitor, partial curve].

With `O=C(OCC(=O)N1CCCC1)c1cc(=O)c2ccccc2o1` as the molecule, how does the Potency read?
Its Potency is “inactive”.

Which Potency does the source give for `CCOC(=O)c1cc(-c2ccccc2)n(CCCC(=O)Nc2ccc(C)cc2C)c1C` here?
Its Potency is inconclusive [inhibitor, partial curve].

Which Potency does the source give for `CC(Cc1ccccc1)NC(=O)CCCN1C(=O)c2ccccc2C1=O` (stereo not given) here?
The Potency was “inactive”.

For `OCCCc1cn(Cc2ccccc2)c2ccccc12`, which Potency is on record?
Its Potency is “inactive”.

With `C[C@@H]1CN([C@@H](C)CO)C(=O)c2cc(Br)cnc2O[C@H]1CN(C)S(=O)(=O)c1cccs1` as the molecule, how does the Potency read?
Its Potency is inconclusive [inhibitor, single point].

With `COc1ccc(C(=O)O/N=C/c2ccc(S(=O)(=O)c3ccc(Cl)cc3)nc2)cc1` as the molecule, how does the Potency read?
Its Potency is “inactive”.

For `CCN(Cc1ccccc1)S(=O)(=O)c1cc(C(=O)NC(C)C2CC3CCC2C3)ccc1OC` (stereo not given), which Potency is on record?
The Potency was active: 14.6 µM.

For `COC(=O)c1cc(C(=O)OCC(=O)NC2CCCCCCC2)cc([N+](=O)[O-])c1`, which Potency is on record?
The Potency was “inactive”.

For `O=C1CCCc2[nH]c3cccc(/C(=C/c4ccccc4)c4ccccc4)c3c21`, which Potency is on record?
The Potency was active: 18.4 µM.

With `COc1cc(NCc2ccccc2)c2ncn(Cc3ccccc3)c2c1` as the molecule, how does the Potency read?
Its Potency is inconclusive [inhibitor, single point].

Which Potency does the source give for `CN=c1scc(-c2ccccc2F)n1/N=C/c1ccc[nH]1` here?
The Potency was inconclusive [inhibitor, single point].

Which Potency does the source give for `Cc1cc(NC2CCCC2)n2ncc(-c3ccccc3)c2n1` here?
The Potency was inconclusive [inhibitor, partial curve].

Which Potency does the source give for `Cc1cccc(C(=O)Nc2ccc(NC(=O)c3cccc(C)c3)cc2)c1` here?
Its Potency is “inactive”.

With `CCc1c(C)nc2ncnn2c1N1CCC(C(=O)Nc2ccccc2)CC1` as the molecule, how does the Potency read?
Its Potency is active: 16.4 µM.

For `CC1(C)C2CCC1(CS(=O)(=O)Nc1cccc(S(N)(=O)=O)c1)C(=O)C2` (stereo not given), which Potency is on record?
Its Potency is “inactive”.

For `Cc1noc2ncnc(NCc3cccc(Cl)c3)c12`, which Potency is on record?
The Potency was active: 18.4 µM.

For `Cc1cccc(-n2c3nc(=O)n(C)c(=O)c-3cc3ccc(Cl)cc32)c1C`, which Potency is on record?
Its Potency is inconclusive [inhibitor, single point].

Which Potency does the source give for `Cc1oc(-c2ccc(Cl)cc2)nc1CSCC(=O)NCCCN1CCOCC1` here?
The Potency was inconclusive [inhibitor, single point].

Which Potency does the source give for `Cn1c(C(=O)N2CCCC(C(=O)N3CCN(C(=O)c4ccco4)CC3)C2)cc2sccc21` (stereo not given) here?
Its Potency is inconclusive [inhibitor, partial curve, poor fit].

For `Cc1ccc(NC(=O)CNc2ccc(OC(C)C)cc2)cc1`, which Potency is on record?
Its Potency is active: 23.1 µM.

With `COc1cccc(C(O)c2nc(-c3cccc(CO)c3)cs2)c1` (stereo not given) as the molecule, how does the Potency read?
The Potency was inconclusive [inhibitor, single point].

With `CN=C1S/C(=C/c2cn(CC(=O)OC)c3ccccc23)C(=O)N1C` as the molecule, how does the Potency read?
Its Potency is inconclusive [inhibitor, partial curve].

With `OCC[N+]1(CCc2ccccc2)CCOCC1` as the molecule, how does the Potency read?
Its Potency is “inactive”.

With `Cc1nnc(SCC(=O)Nc2ccccc2)c2ccccc12` as the molecule, how does the Potency read?
The Potency was inconclusive [inhibitor, single point].

Which Potency does the source give for `CCOC(=O)c1ccc(S(=O)(=O)Nc2ccc(N3CCOCC3)cc2)cc1` here?
The Potency was inconclusive [inhibitor, partial curve, poor fit].

Which Potency does the source give for `c1ccc(-c2ccc(Oc3cc(N4CCOCC4)nc(-c4ccccc4)n3)cc2)cc1` here?
The Potency was inconclusive [inhibitor, partial curve].

With `COc1ccccc1N1C(=O)CC(N(O)c2ccccc2)C1=O` (stereo not given) as the molecule, how does the Potency read?
The Potency was inconclusive [inhibitor, single point].

Which Potency does the source give for `COc1ccc2c(c1)sc1nc(=O)ccn12` here?
Its Potency is “inactive”.

For `Cc1ccc(-c2nn(-c3ccccc3)cc2CC(=S)N2CCOCC2)cc1`, which Potency is on record?
The Potency was “inactive”.

Which Potency does the source give for `CCN(CC)CCn1c2c(c(SCC(=O)Nc3cccc(C(C)=O)c3)nc1=O)CCCC2` here?
Its Potency is inconclusive [inhibitor, single point].

With `CCOc1ccc(-n2c(SCC(=O)N3CCCCC3)nc3c([nH]c4ccccc43)c2=O)cc1` as the molecule, how does the Potency read?
Its Potency is inconclusive [inhibitor, full curve, poor fit].

With `CC(=O)N1CCN(S(=O)(=O)c2cccc(C(=O)NC3CCC(C)CC3)c2)CC1` (stereo not given) as the molecule, how does the Potency read?
The Potency was “inactive”.

With `CC(C)(C)C(=O)N1CCN(c2nc3c(F)cccc3s2)CC1` as the molecule, how does the Potency read?
The Potency was active: 16.4 µM.

For `C=CCOc1ccc(/C=N/NC(=O)CN(c2cc(Cl)ccc2OC)S(=O)(=O)c2ccc(C)c([N+](=O)[O-])c2)cc1`, which Potency is on record?
Its Potency is inconclusive [inhibitor, single point].

Which Potency does the source give for `CC(=O)N1N=C(c2ccc(Cl)cc2)CC1c1ccco1` (stereo not given) here?
Its Potency is inconclusive [inhibitor, partial curve].

For `CC1Cc2nc(SCC(=O)c3ccccc3)n(Cc3ccccc3)c(=O)c2S1` (stereo not given), which Potency is on record?
The Potency was active: 10.3 µM.

For `COCCNC(=S)N1CCN(c2ccc(Cl)cc2)CC1`, which Potency is on record?
The Potency was “inactive”.

For `O=C(Nc1cc(S(=O)(=O)N2CCOCC2)ccc1N1CCOCC1)c1cccc(Cl)c1`, which Potency is on record?
The Potency was inconclusive [inhibitor, single point].

Which Potency does the source give for `CCc1nc2ccc(C(=O)Nc3cccc(OCC(=O)N(C)C)c3)cn2c1N(C)Cc1cc2ccccc2s1` here?
Its Potency is active: 16.4 µM.

Which Potency does the source give for `COc1ccc(S(=O)(=O)Nc2nc3ccccc3nc2NCC2CCCO2)cc1` (stereo not given) here?
Its Potency is inconclusive [inhibitor, single point].

Which Potency does the source give for `COc1ccc(C2CC(c3cccc([N+](=O)[O-])c3)=NN2/C(C)=C/C(C)=O)cc1` (stereo not given) here?
Its Potency is inconclusive [inhibitor, single point].

With `Cc1nc2ccccc2n1C(=O)c1cc(-c2ccc(Br)cc2)nc2ccccc12` as the molecule, how does the Potency read?
The Potency was “inactive”.

With `Cc1ccc(C(=O)N/N=C\c2ccc(-c3ccc([N+](=O)[O-])cc3)o2)cn1` as the molecule, how does the Potency read?
Its Potency is inconclusive [inhibitor, partial curve, poor fit].

Which Potency does the source give for `COc1ccc(CCNC(=O)Nc2nc(C(N)CCc3ccccc3)cs2)cc1OC` (stereo not given) here?
The Potency was inconclusive [inhibitor, single point].

Which Potency does the source give for `COc1ccc(-n2c(=O)c(-c3cc(F)cc(F)c3)nc3cncnc32)cc1` here?
Its Potency is “inactive”.

Which Potency does the source give for `COc1ccc(Br)cc1CNC(=O)c1ccc2c(c1)nc1n2CCCCC1` here?
Its Potency is active: 16.4 µM.

With `COc1ccc(CNC(=O)CNC(=O)c2cccs2)c(OC)c1` as the molecule, how does the Potency read?
The Potency was “inactive”.

With `Fc1ccc(Br)cc1/C=N/n1cnnc1` as the molecule, how does the Potency read?
Its Potency is “inactive”.

With `CCc1ccc(-c2cc3c(N4CCN(c5ccccc5)CC4)nccn3n2)cc1` as the molecule, how does the Potency read?
The Potency was active: 20.6 µM.
